The target in one assay is GST-HIP-55 (human) (UniProt Q9UJU6). The assay is described as follows: pull-down; GST pull-down from lysates of transfected HEK293A cells; Glutathione-Sepharose 4B, 4 °C 4 h, three washes with lysis buffer (1% NP-40, 150 mM NaCl, 100 mM Hepes); immunoblotting. Background: Immunoblotting shows a protein as a band on a membrane.
Assay [1] deals with GST-HIP-55AA (S269A/T291A-mutated HIP-55) (human) (UniProt Q9UJU6). The assay is described as above.

Amino acid sequences for entries named in this document (tags omitted). A change or cut given only in a name is not applied to a line headed by its entry.
UniProt Q9UJU6: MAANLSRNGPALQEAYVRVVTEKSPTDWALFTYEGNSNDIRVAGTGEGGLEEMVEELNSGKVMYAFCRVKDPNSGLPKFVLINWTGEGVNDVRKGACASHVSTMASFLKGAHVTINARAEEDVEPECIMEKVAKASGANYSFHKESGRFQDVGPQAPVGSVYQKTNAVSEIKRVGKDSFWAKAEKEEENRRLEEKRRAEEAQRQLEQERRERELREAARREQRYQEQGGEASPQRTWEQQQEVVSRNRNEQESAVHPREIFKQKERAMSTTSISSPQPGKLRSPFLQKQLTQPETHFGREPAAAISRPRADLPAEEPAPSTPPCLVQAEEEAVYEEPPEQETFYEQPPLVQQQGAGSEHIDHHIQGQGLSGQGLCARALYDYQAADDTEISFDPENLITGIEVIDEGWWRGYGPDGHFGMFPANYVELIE

No constants are given. Whether binding was seen depends on the method and setting. In cells and extracts the contact can be indirect. Some results given as binding are weak or reduced against the parent protein; the word gives no strength.

B1: 14-3-3τ (protein, UniProt P27348 1-245)
chain: MEKTELIQKAKLAEQAERYDDMATCMKAVTEQGAELSNEERNLLSVAYKNVVGGRRSAWRVISSIEQKTDTSDKKLQLIKDYREKVESELRSICTTVLELLDKYLIANATNPESKVFYLKMKGDYFRYLAEVACGDDRKQTIDNSQGAYQEAFDISKKEMQPTHPIRLGLALNFSVFYYEILNNPELACTLAKTAFDEAIAELDTLNEDSYKDSTLIMQLLRDNLTLWTSDSAGEECDAAEGAEN
Consider B1, for which the binding result is on record as “binds” with GST-HIP-55 (human) and “no binding” in assay [1].

B2: 14-3-3γ/K50E mutant (protein, UniProt P61981 1-247)
chain: MVDREQLVQKARLAEQAERYDDMAAAMKNVTELNEPLSNEERNLLSVAYENVVGARRSSWRVISSIEQKTSADGNEKKIEMVRAYREKIEKELEAVCQDVLSLLDNYLIKNCSETQYESKVFYLKMKGDYYRYLAEVATGEKRATVVESSEKAYSEAHEISKEHMQPTHPIRLGLALNYSVFYYEIQNAPEQACHLAKTAFDDAIAELDTLNEDSYKDSTLIMQLLRDNLTLWTSDQQDDDGGEGNN
For B2, the binding result with GST-HIP-55 (human) was “no binding”.

The values are drawn from publication PMC9984488.
